Results taken from PubChem BioAssay AID651820 (National Center for Advancing Translational Sciences (NCATS), 2012).
The whole screen tested about 340,000 compounds, of which about 12,000 (3.5%) were called active. Inconclusive means that the source gave no clear call. Such entries were picked first, then a sample of the others. The call rests on the fitted dose curve; in most records, active means well fitted inhibition curve with a large enough effect; inconclusive means small, poorly fitted or top-dose-only effect, or another doubt; inactive means no such curve, though single readings can be large or run the other way. Potencies of inconclusive entries are left out as doubtful fits.

Test: qHTS Assay for Inhibitors of Hepatitis C Virus (HCV)
Conditions: Huh7.5.1 HCVcc-Cre (HCVcc is cell-culture hepatitis C virus) infection, luciferase reporter, 44 h; series mostly up to 41.8 µM
In short: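 After 44 h co-culture of compound, cells and HCVcc-Cre (~0.5 moi), substrate is added for 15 min at room temperature and luciferase measured over 15 sec. Cells were seeded at 1,000/well and pre-cultured 4 h.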
Potency means the concentration at half of the fitted maximal effect; tags describe the fitted curve by direction and shape.

SMILES	Potency
COc1ccc(CN(C(=O)c2snc(C(N)=O)c2N)C(C(=O)NC2CCCC2)c2ccc(OC)c(OC)c2)cc1 (stereo not drawn)	inactive
CN(C(=O)c1cccc(NC(=O)Cc2ccc(NC(=O)C3CCN(C(=O)CCc4ccccc4)CC3)cc2)c1)C1CC1	inconclusive [inhibitor, partial curve]
O=C(c1ccc(F)cc1)N1CCOCC1	inactive
CC(C)CCNC(=O)c1ccc2c(c1)ncn2C1CCCCC1	inconclusive [inhibitor, single point]
COc1ccccc1CNC(=O)c1ccc(-c2ccccc2)cc1	inconclusive [inhibitor, single point]
Cc1cccc(-n2c(N)c(C(=O)NCCN3CCOCC3)c3nc4ccccc4nc32)c1	inconclusive [inhibitor, single point]
O=C(c1ccc(Br)o1)N1CCN(c2ccccc2F)CC1	inconclusive [inhibitor, partial curve, poor fit]
O=C(Nc1ncc([N+](=O)[O-])s1)c1cccc([N+](=O)[O-])c1	inconclusive [inhibitor, partial curve]
Cc1ccc(S(=O)(=O)Nc2c3ccccc3nc(=O)n2-c2ccccc2)cc1	inconclusive [inhibitor, partial curve]
Cc1ccc(S(=O)(=O)NCCCOC(=O)Nc2ccncc2)cc1	inconclusive [inhibitor, partial curve]
CC1CC(C)CN(C(=O)CSc2nc(Cc3cccs3)nc3ccccc23)C1 (stereo not drawn)	inconclusive [inhibitor, single point]
O=C(CCCn1nnc2ccccc2c1=O)N[C@H](C(=O)O)c1ccccc1	inconclusive [inhibitor, single point]
COC(=O)C1=C(C)N(Cc2ccccc2)C(=NCCc2c[nH]c3ccccc23)N[C@H]1c1ccccc1	inconclusive [inhibitor, single point]
CCOC(=O)Cc1csc(NC(=O)Cc2ccc(Br)cc2)n1	inconclusive [inhibitor, single point]
N#CC(C#N)=C1C=CC=CN1/C(=C\c1ccco1)C(=O)c1ccc(Br)cc1	inconclusive [inhibitor, full curve]
Cc1ccc(-c2cc(C(=O)Nc3c(C#N)cnn3C)no2)cc1	inactive
Cc1ccccc1-n1nnc2c(=O)oc3ccccc3c21	active: 35.5 µM
COc1ccccc1C1c2[nH]c3ccccc3c2C[C@H]2C(=O)N(C3CCN(Cc4ccccc4)CC3)CC(=O)N12 (stereo partly drawn)	inconclusive [inhibitor, single point]
Cc1ccc(C(=O)N/C(=C/c2cccs2)C(=O)N2CCCCCC2)cc1	inactive
CCOC(=O)N1CCN(S(=O)(=O)c2ccc(C)c([N+](=O)[O-])c2)CC1	inactive
COc1ccc(-c2nnc3ccc(SCC(=O)Nc4nccs4)nn23)cc1OC	inactive
CCCNC(=O)c1nnsc1S(=O)c1ccc(Cl)cc1 (stereo not drawn)	inconclusive [inhibitor, single point]
COc1ccccc1C1CC(c2ccccc2)=NN1C(=S)Nc1ccccc1 (stereo not drawn)	inconclusive [inhibitor, single point]

SMILES	Potency
COc1ccc(OCC(O)CN2CCC(CN3C(=O)c4cccc5cccc(c45)C3=O)CC2)cc1 (stereo not drawn)	inconclusive [inhibitor, partial curve]
CC(C)(C)c1cc(/C=C2\NC(=O)NC2=O)cc(C(C)(C)C)c1O	inconclusive [inhibitor, partial curve]
O=C(Cc1coc2ccc3ccccc3c12)N1CCc2ccccc21	inconclusive [inhibitor, single point]
COC(=O)[C@H](C)NC(=O)Nc1cccc(Br)c1	inactive
O=C1C=CC(=O)N1c1ccc(OC(F)F)cc1	inconclusive [inhibitor, single point]
O=C(NN=C1c2ccccc2-c2ccccc21)c1cccc(Br)c1	inconclusive [inhibitor, partial curve]
COc1cc(CN2CCC(n3nccc3NC(=O)CCCc3ccccc3)CC2)ccc1F	inconclusive [inhibitor, single point]
Cc1nn(C2CCS(=O)(=O)C2)c(Cl)c1/C=C/C(=O)OCC(=O)c1c[nH]c2ccccc12 (stereo not drawn)	active: 22.4 µM
CCN(CC(=O)NCc1ccc(Cl)cc1)C(=O)COc1cccc(Cl)c1	inconclusive [inhibitor, single point]
CCc1nn(C(CC)C(=O)NCc2cccs2)c(=O)c2cc3occc3n12 (stereo not drawn)	inconclusive [inhibitor, partial curve]
COc1ccc(OC(C)c2ccc(C#N)c(=O)[nH]2)cc1 (stereo not drawn)	inconclusive [inhibitor, partial curve, poor fit]
Cc1onc(-c2ccccc2)c1C(=O)c1c[nH]c(C(=O)NCCCN2CCOCC2)c1	inconclusive [inhibitor, single point]
Fc1ccc(-c2csc(-c3ccccn3)n2)cc1F	inconclusive [inhibitor, single point]
CCCCNC(=S)N(C)/N=C/c1c(F)cccc1F	inconclusive [inhibitor, single point]
COCc1ccc(C(=O)N2CCCC(C(=O)c3ccc(Cl)cc3C)C2)o1 (stereo not drawn)	inconclusive [inhibitor, single point]
CCCn1nnnc1NC(=O)COc1ccc(CC)cc1	inconclusive [inhibitor, partial curve, poor fit]
COc1ccc(-c2nc3ccc(C)cn3c2NCc2ccccc2)cc1SC1CCCCC1	inconclusive [inhibitor, partial curve]
O=C(OCc1ccccc1)c1ccc2c(c1)-c1ccccc1C2=O	inconclusive [inhibitor, single point]
C=CCn1cc(/C=N\NC(=O)c2cc3c(ccc4ccccc43)o2)c2ccccc21	active: 10 µM
CC(O)/C=C/c1ccc2ccccc2n1 (stereo not drawn)	active: 11.2 µM
O=C(CN1c2cccc3cccc(c23)S1(=O)=O)N1CCN(c2ccc(F)cc2)CC1	inconclusive [inhibitor, partial curve]
O=C(COc1ccccc1Cl)Nc1ccc(CN2CCOCC2)cc1	active: 12.6 µM
O=C(CSc1nc2ccccc2[nH]1)NC(=O)NCc1ccco1	inconclusive [inhibitor, single point]

SMILES	Potency
CC(Oc1cccc(Br)c1)C(=O)Nc1cccc(S(=O)(=O)N2CCOCC2)c1 (stereo not drawn)	inconclusive [inhibitor, partial curve]
O=C(CSc1nc(NS(=O)(=O)c2ccccc2)cc(=O)[nH]1)Nc1ccccc1Cl	inconclusive [inhibitor, single point]
N#Cc1ccc(OC(=O)c2cnccn2)cc1	inactive
COc1ccc(C(=O)Nc2ccc(C3=NNC(=O)CC3C)cc2NC(=O)c2ccc(OC)cc2)cc1 (stereo not drawn)	active: 10 µM
NC(=NCc1ccccc1)NC(=O)c1nc(Cl)c(N)nc1N	inactive
Cc1ccc2c(c1)c1c3n2CCN(C=O)C3CCC1 (stereo not drawn)	inconclusive [inhibitor, single point]
Cc1c(CN2CCc3c([nH]c4ccccc34)C2CC(C)C)cnn1C (stereo not drawn)	inactive
CCC(Sc1ccc2nnc(-c3ccc(OC)c(OC)c3)n2n1)C(=O)O (stereo not drawn)	inactive
O=C(Nc1nc2c(ccc3ccccc32)s1)c1ccco1	active: 25.1 µM
Cc1cccc(C)c1N(CC(O)Cn1c2ccccc2c2ccccc21)S(C)(=O)=O (stereo not drawn)	inconclusive [inhibitor, single point]
CCc1cccc(OCC(=O)Nc2ccc(S(=O)(=O)N3CCCC3)cc2)c1	active: 11.2 µM
CC(=O)N1CCCc2cc(S(=O)(=O)N3CCCC(C(=O)Nc4cccc(F)c4)C3)ccc21 (stereo not drawn)	inconclusive [inhibitor, single point]
O=c1cc(CN2CCN(c3cccc(Cl)c3)CC2)c2cc3c(cc2o1)CCCC3	inconclusive [inhibitor, partial curve]
Cc1cc(Cl)c2oc(C(=O)N3CCN(c4ccncc4)CC3)c(C)c2c1	active: 1.26 µM
COc1ccc(C(CC(=O)N2CCCC(C)C2)c2c(OC)cc(OC)c3c(-c4ccccc4)cc(=O)oc23)cc1 (stereo not drawn)	inconclusive [inhibitor, partial curve]
CCOC(=O)c1[nH]c2ccccc2c1NC(=O)c1cc(OC)c(OC)c(OC)c1	inactive
CCc1nc(N=Nc2c(O)[nH]c3ccccc23)c2c3c(sc2n1)CCC3	inconclusive [inhibitor, full curve, poor fit]
COC(=O)c1ccc(CN(c2ccc(OC)cc2)S(=O)(=O)c2ccccc2)cc1	inconclusive [inhibitor, partial curve]
Cc1ccc(S(=O)(=O)N2CCC(=O)N(C(COCc3cccc(C)c3)Cc3ccccc3)CC2)cc1 (stereo not drawn)	inconclusive [inhibitor, single point]
O=C(c1cc2c(s1)CCCC2)N1CCN(CCO)CC1	inactive
Cc1ccc(N(Cc2cc(=O)[nH]c3ccccc23)C(=O)CCl)c(C)c1	inconclusive [inhibitor, single point]
Cc1ccc(NC(=O)COc2coc(CN3CCN(Cc4ccccc4)CC3)cc2=O)cc1	inconclusive [inhibitor, single point]
